Results as given in patent US4851385A, “LHRH antagonist analogs having low histamine-release activity” (Indiana University Foundation, priority 1987, dated 1989).
Part of at least one peptide drawing is inferred or uncertain, most often the ends. *1 amine or outer side, *2 acyl side, *3 side chain or, on linkers, in order; H or OH if unused. Where a SMILES comes first, the peptide text is derived from it. [ ]: non-standard residue; d: D form. Ala(1-Me-3-pyridinium) = C[n+]1cccc(C[C@H](N)C(=O)O)c1; X1 = C[n+]1cccc(C[C@@H](N[*:1])C(=O)[*:2])c1; X2 = C[C@](Cc1ccc(Cl)cc1)(N[*:1])C(=O)[*:2]; Lys(Me3) = C[N+](C)(C)CCCC[C@H](N)C(=O)O; dPhe(4-Cl) = N[C@H](Cc1ccc(Cl)cc1)C(=O)O; d2Nal = N[C@H](Cc1ccc2ccccc2c1)C(=O)O; dLys(iPr) = CC(C)NCCCC[C@@H](N)C(=O)O; Lys(iPr) = CC(C)NCCCC[C@H](N)C(=O)O; d3Pal = N[C@H](Cc1cccnc1)C(=O)O

Key:
rat mast cells = assay: In vitro histamine releasing activity assay (rat peritoneal mast cell suspension, fluorometric histamine assay); assay type: cell-based; conditions: for In Vitro Histamine Release ED50: mean effective dose from dose response curves, rat mast cells, 15 min at 37° C., duplicate or triplicate, cells from at least three rats; for mean effective dose for histamine release: histamine release assay
Procedure: The in vitro histamine release activity of the analogs was assayed by the method described below and the results are given in Table I.
A suspension of rat mast cells was added to increasing concentrations of peptide and the mixture was incubated for a few minutes followed by centrifugation to collect the histamine in the supernatant. A PIPES (piperazine-N,N'-bis[2-ethanesulfonic acid]) medium buffered at pH 7.4 containing NaCl119 mM, KCl5 mM, PIPES 25mM, NaOH 40 mM, glucose 5.6 mM, CaCl2 1 mM and 0.1% bovine serum albumin was used. This was designated as PIPES AC. Peptides were dissolved in double distilled H2 O at a concentration of 2 mg ml and stored at -20° C. They were thawed just prior to testing, duluted in PIPES AC and prewarmed for 5 min. at 37° C. Peptides studied were stable to heating at 56° C. for 2 hr., and to freezing and thawing.
Peritoneal cells were collected from male Sprague-Dawley rats weighing 200 to 250 gm and purchased from Harlan (Madison, Wis.). After euthanasia by CO2, the peritoneal cavity was washed with 50 ml PIPES AC medium containing 20 units of heparin. Following centrifugation at 200×g for 8 min. at 4° C., cells were washed again and finally resuspended to a concentration of 8 to 24×10^5 total leukocytes/ml in PIPES AC. This suspension contained approximately 5-10% mast cells. Washed cells were used immediately after collection and were prewarmed for 5 min. at 37° C. prior to pipetting 0.25 ml aliquotes into 12×75 mm polystyrene tubes containing 0.25 ml of diluted peptide. Mixtures were incubated for 15 min at 37° C. and the reaction stopped by centrifugation at 400×g for 15 min at 4° C. The cell supernatants were assayed for histamine content by the automated fluorometric assay procedure as described by Siraganian in "An Automated Continuous Flow System For The Extraction And Fluorometric Analysis Of Histamine", Anal. Biochem., 57 383 (1974), and by Siraganian and Hook in "Histamine Release And Assay Methods For The Study of Human Allergy" in "Manual of Clinical Immunology" 3rd ed., N. R. Rose, H. Friedman, and J. L. Fahey (Eds.) Amer. Soc. for Microbiology, Washington, 1986, p. 808. Alternatively, the more laborious manual fluorometric assay method may be employed which gives similar results as described by Siraganian and Hook. The LHRH analog [N-Ac-D-Nal(2)^1 D-pC1-Phe^2,D-Trp^3, D-Arg^6, D-Ala^10 ] LHRH (compound (1) of Table I) was tested with the mast cells of each rat as a standard in each experiment.
For routine testing, mast cells were not purified.

rat = assay: Standard antiovulatory assay (Corbin and Beattie); assay type: in vivo; conditions: corn oil vehicle; ≥ = significant reduction in rats ovulating but ED100 not achieved at the dose; ≥≥ = inactive at the dose tested
Procedure: Antiovulatory activity was determined by standard antiovulatory assays conducted by the method described by Corbin and Beattie, Endocrine Research Communications 2 1 (1975) and results are given in Table I.

| Compound | In Vitro Histamine Release ED50 (rat mast cells) | Ovulation Inhibition, Corn Oil, ED100 (rat) | mean effective dose for histamine release (rat mast cells) |
| --- | --- | --- | --- |
| CC(=O)N[C@H](Cc1ccc2ccccc2c1)C(=O)N[C@H](Cc1ccc(Cl)cc1)C(=O)N[C@H](Cc1cccnc1)C(=O)N[C@@H](CO)C(=O)N[C@@H](Cc1ccc(O)cc1)C(=O)N[C@H](Cc1ccc[n+](C)c1)C(=O)N[C@@H](CC(C)C)C(=O)N[C@@H](CCCCNC(C)C)C(=O)N1CCC[C@H]1C(=O)N[C@H](C)C(N)=O [Compound 8, [N--Ac--D-Nal(2)^2,D-pCl--Phe^2,D-Pal(3)^3,D-MePal^6,Lys(iPr)^8,D-Ala^10]LHRH] (Ac-[d2Nal][dPhe(4-Cl)][d3Pal]SY[X1]L[Lys(iPr)]P[dA]-NH2) | 7.1 µg/mL |  |  |
| CC(=O)N[C@H](Cc1ccc2ccccc2c1)C(=O)N[C@H](Cc1ccc(Cl)cc1)C(=O)N[C@H](Cc1c[nH]c2ccccc12)C(=O)N[C@@H](CO)C(=O)N[C@@H](Cc1ccc(O)cc1)C(=O)N[C@H](CCCCNC(C)C)C(=O)N[C@@H](CC(C)C)C(=O)N[C@@H](CCCCNC(C)C)C(=O)N1CCC[C@H]1C(=O)N[C@H](C)C(N)=O [Compound 4, [N--Ac--D-Nal(2)^1,D-pCl--Phe^2,D-Trp^3,D-Lys(iPr)^6,Lys(iPr)^8,D-Ala^10]LHRH] (Ac-[d2Nal][dPhe(4-Cl)][dW]SY[dLys(iPr)]L[Lys(iPr)]P[dA]-NH2) | 6.6 µg/mL | 1.0 ug/rat |  |
| CC(=O)N[C@H](Cc1ccc2ccccc2c1)C(=O)N[C@H](Cc1ccc(Cl)cc1)C(=O)N[C@H](Cc1cccnc1)C(=O)N[C@@H](CO)C(=O)N[C@@H](CCCCNC(C)C)C(=O)N[C@H](Cc1ccc[n+](C)c1)C(=O)N[C@@H](CC(C)C)C(=O)N[C@@H](CCCCNC(C)C)C(=O)N1CCC[C@H]1C(=O)N[C@H](C)C(N)=O [Compound 11, [N--Ac--D-Nal(2)^1,D-pCl--Phe^2,D-Pal(3)^3,Lys(iPr)^5,D-MePal^6,Lys(iPr)^8,D-Ala^10]LHRH] (Ac-[d2Nal][dPhe(4-Cl)][d3Pal]S[Lys(iPr)][X1]L[Lys(iPr)]P[dA]-NH2) | 9.72 µg/mL |  | 9.72 µg/mL |
| CC(=O)N[C@H](Cc1ccc2ccccc2c1)C(=O)N[C@](C)(Cc1ccc(Cl)cc1)C(=O)N[C@H](Cc1cccnc1)C(=O)N[C@@H](CO)C(=O)N[C@@H](CCCCNC(C)C)C(=O)N[C@H](Cc1ccc(O)cc1)C(=O)N[C@@H](CC(C)C)C(=O)N[C@@H](CCCCNC(C)C)C(=O)N1CCC[C@H]1C(=O)N[C@H](C)C(N)=O [Compound 5, [N--Ac--D-Nal(2)^1,D-C--α-Me--pCl--Phe^2,D-Pal(3)^3,Lys(iPr)^5,D-Tyr^6,Lys(iPr)^8,D-Ala^10]LHRH] (Ac-[d2Nal][X2][d3Pal]S[Lys(iPr)][dY]L[Lys(iPr)]P[dA]-NH2) | 3.2 µg/mL | 1.0 ug/rat |  |
| CC(=O)N[C@H](Cc1ccc2ccccc2c1)C(=O)N[C@](C)(Cc1ccc(Cl)cc1)C(=O)N[C@H](Cc1cccnc1)C(=O)N[C@@H](CO)C(=O)N[C@@H](Cc1ccc(O)cc1)C(=O)N[C@H](CCCNC(=N)N)C(=O)N[C@@H](CC(C)C)C(=O)N[C@@H](CCCCNC(C)C)C(=O)N1CCC[C@H]1C(=O)N[C@H](C)C(N)=O [Compound 3, [N--Ac--D-Nal(2)^1,D-C--α-Me--pCl--Phe^2,D-Pal(3)^3,D-Arg^6,Lys(iPr)^8,D-Ala^10]LHRH] (Ac-[d2Nal][X2][d3Pal]SY[dR]L[Lys(iPr)]P[dA]-NH2) | 4.0 µg/mL | 1.0 ug/rat |  |
| CC(=O)N[C@H](Cc1ccc2ccccc2c1)C(=O)N[C@H](Cc1ccc(Cl)cc1)C(=O)N[C@H](Cc1cccnc1)C(=O)N[C@@H](CO)C(=O)N[C@@H](Cc1ccc[n+](C)c1)C(=O)N[C@H](Cc1ccc(O)cc1)C(=O)N[C@@H](CC(C)C)C(=O)N[C@@H](CCCCNC(C)C)C(=O)N1CCC[C@H]1C(=O)N[C@H](C)C(N)=O [Compound 10, [N--Ac--D-Nal(2)^1,D-pCl--Phe^2,D-Pal(3)^3,MePal^5,D-Tyr^6,Lys(iPr)^8,D-Ala^10]LHRH] (Ac-[d2Nal][dPhe(4-Cl)][d3Pal]S[Ala(1-Me-3-pyridinium)][dY]L[Lys(iPr)]P[dA]-NH2) | 4.33 µg/mL | ≥ 0.5 ug/rat |  |
| CC[C@H](C)[C@H](NC(=O)[C@H](CO)NC(=O)[C@@H](Cc1cccnc1)NC(=O)[C@@H](Cc1ccc(Cl)cc1)NC(=O)[C@@H](Cc1ccc2ccccc2c1)NC(C)=O)C(=O)N[C@H](CCCCNC(C)C)C(=O)N[C@@H](CC(C)C)C(=O)N[C@@H](CCCCNC(C)C)C(=O)N1CCC[C@H]1C(=O)N[C@H](C)C(N)=O [Compound 7, [N--Ac--D-Nal(2)^1,D-pCl--Phe^2,D-Pal(3)^3,Ile^5,D-Lys(iPr)^6,Lys(iPr)^8,D-Ala^10]LHRH] (Ac-[d2Nal][dPhe(4-Cl)][d3Pal]SI[dLys(iPr)]L[Lys(iPr)]P[dA]-NH2) | 9.92 µg/mL | ≥ 0.5 ug/rat |  |
| CC(=O)N[C@H](Cc1ccc2ccccc2c1)C(=O)N[C@H](Cc1ccc(Cl)cc1)C(=O)N[C@H](Cc1cccnc1)C(=O)N[C@@H](CO)C(=O)N[C@@H](CCCCNC(C)C)C(=O)N[C@H](Cc1ccc(O)cc1)C(=O)N[C@@H](CC(C)C)C(=O)N[C@@H](CCCNC(=N)N)C(=O)N1CCC[C@H]1C(=O)N[C@H](C)C(N)=O [Compound 6, [N--Ac--D-Nal(2)^1,D-pCl--Phe^2,D-Pal(3)^3,Lys(iPr)^5,D-Tyr^6,D-Ala^10]LHRH] (Ac-[d2Nal][dPhe(4-Cl)][d3Pal]S[Lys(iPr)][dY]LRP[dA]-NH2) | 1.97 µg/mL | 1.0 ug/rat |  |
| CC(=O)N[C@H](Cc1ccc2ccccc2c1)C(=O)N[C@H](Cc1ccc(Cl)cc1)C(=O)N[C@H](Cc1cccnc1)C(=O)N[C@@H](CO)C(=O)N[C@@H](Cc1ccc[n+](C)c1)C(=O)N[C@H](CCCCNC(C)C)C(=O)N[C@@H](CC(C)C)C(=O)N[C@@H](CCCCNC(C)C)C(=O)N1CCC[C@H]1C(=O)N[C@H](C)C(N)=O [Compound 12, [N--Ac--D-Nal(2)^1,D-pCl--Phe^2,D-Pal(3)^3,MePal^5,D-Lys(iPr)^6,Lys(iPr)^8,D-Ala^10]LHRH] (Ac-[d2Nal][dPhe(4-Cl)][d3Pal]S[Ala(1-Me-3-pyridinium)][dLys(iPr)]L[Lys(iPr)]P[dA]-NH2) | 7.9 µg/mL |  |  |
| CC(=O)N[C@H](Cc1ccc2ccccc2c1)C(=O)N[C@H](Cc1ccc(Cl)cc1)C(=O)N[C@H](Cc1cccnc1)C(=O)N[C@@H](CO)C(=O)N[C@@H](Cc1ccc[n+](C)c1)C(=O)N[C@H](Cc1ccc(O)cc1)C(=O)N[C@@H](CC(C)C)C(=O)N[C@@H](CCCC[N+](C)(C)C)C(=O)N1CCC[C@H]1C(=O)N[C@H](C)C(N)=O [Compound 9, [N--Ac--D-Nal(2)^1,D-pCl--Phe^2,D-Pal(3)^3,MePal^5,D-Tyr^6,Lys(Me3)^8,D-Ala^10]LHRH] (Ac-[d2Nal][dPhe(4-Cl)][d3Pal]S[Ala(1-Me-3-pyridinium)][dY]L[Lys(Me3)]P[dA]-NH2) | 5.62 µg/mL |  | about 9.0 ug/ml |
| CC(=O)N[C@H](Cc1ccc2ccccc2c1)C(=O)N[C@H](Cc1ccc(Cl)cc1)C(=O)N[C@H](Cc1c[nH]c2ccccc12)C(=O)N[C@@H](CO)C(=O)N[C@@H](Cc1ccc(O)cc1)C(=O)N[C@H](CCCNC(=N)N)C(=O)N[C@@H](CC(C)C)C(=O)N[C@@H](CCCNC(=N)N)C(=O)N1CCC[C@H]1C(=O)N[C@H](C)C(N)=O [Compound 1, [N-Ac-D-Nal(2)^1, D-p-Cl-Phe^2, D-Trp^3, D-Arg^6, D-Ala^10] LHRH, reference compound] (Ac-[d2Nal][dPhe(4-Cl)][dW]SY[dR]LRP[dA]-NH2) | 0.10 µg/mL | 1.0 ug/rat | 0.10 µg/mL |
